About 14,000 (4.5%) of roughly 310,000 compounds showed an effect of 50% or more. The effect is printed as a negative number. This is one part of the list.
Biological target: human ether-à-go-go-related gene (hERG) potassium channel (human, UniProt Q12809)
Experiment: primary screen, population patch clamp on CHO cells stably expressing hERG
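Also: peak tail current of the secondary pulse compared with the same well before compound.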

Sequence of human ether-à-go-go-related gene (hERG) potassium channel (Q12809 whole entry, looked up): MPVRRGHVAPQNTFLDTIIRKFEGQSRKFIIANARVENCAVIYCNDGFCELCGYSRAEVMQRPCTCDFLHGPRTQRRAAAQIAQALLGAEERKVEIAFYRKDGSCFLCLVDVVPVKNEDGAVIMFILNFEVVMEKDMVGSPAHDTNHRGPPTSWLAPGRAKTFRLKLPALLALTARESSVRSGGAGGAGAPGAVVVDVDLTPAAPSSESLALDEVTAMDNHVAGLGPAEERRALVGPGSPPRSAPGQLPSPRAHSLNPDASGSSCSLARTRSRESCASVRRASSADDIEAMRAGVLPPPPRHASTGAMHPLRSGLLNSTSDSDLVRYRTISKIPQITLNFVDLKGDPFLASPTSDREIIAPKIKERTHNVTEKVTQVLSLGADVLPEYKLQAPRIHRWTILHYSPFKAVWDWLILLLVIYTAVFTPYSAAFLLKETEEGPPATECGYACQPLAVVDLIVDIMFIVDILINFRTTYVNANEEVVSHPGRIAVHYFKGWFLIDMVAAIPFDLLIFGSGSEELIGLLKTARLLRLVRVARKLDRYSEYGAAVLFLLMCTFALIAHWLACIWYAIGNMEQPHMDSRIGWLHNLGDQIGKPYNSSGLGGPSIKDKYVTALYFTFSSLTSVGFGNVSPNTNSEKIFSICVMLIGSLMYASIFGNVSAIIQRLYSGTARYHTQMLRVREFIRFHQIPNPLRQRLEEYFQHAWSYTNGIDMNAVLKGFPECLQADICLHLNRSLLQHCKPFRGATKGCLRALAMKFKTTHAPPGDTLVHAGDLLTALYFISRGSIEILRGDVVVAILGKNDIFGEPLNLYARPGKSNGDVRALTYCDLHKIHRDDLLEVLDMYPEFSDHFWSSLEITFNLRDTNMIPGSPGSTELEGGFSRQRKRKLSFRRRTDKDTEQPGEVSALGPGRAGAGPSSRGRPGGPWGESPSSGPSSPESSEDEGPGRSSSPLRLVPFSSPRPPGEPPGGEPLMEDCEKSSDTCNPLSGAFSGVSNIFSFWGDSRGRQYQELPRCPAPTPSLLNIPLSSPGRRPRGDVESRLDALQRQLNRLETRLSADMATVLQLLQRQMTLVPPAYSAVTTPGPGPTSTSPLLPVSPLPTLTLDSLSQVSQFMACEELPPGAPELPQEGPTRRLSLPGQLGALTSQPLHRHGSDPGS

Row | SMILES | hERG current change (%, negative = inhibition) at 10uM [%]
1 | O=C(CCC(=O)N1CCN(c2ccccn2)CC1)Nc1nnc(C2CCCCC2)s1 | 7.03
2 | O=C(CC1SCCNC1=O)Nc1cccc(Cl)c1 (stereo not shown) | 16.8
3 | O=C(NCC1CCCO1)c1cc2c(s1)CS(=O)(=O)C2 (stereo not shown) | 11.8
4 | c1ccc2c(CCNc3ncnc4nc[nH]c34)c[nH]c2c1 | 11.8
5 | Cc1ccc(C(=O)c2ccccc2C(=O)O)cc1C | 7.52
6 | CCCCn1nc(C(=O)NC2=NCCS2)c2ccccc2c1=O | -16.3
7 | COc1cccc(-c2nc(CS(=O)(=O)CC(=O)NCCc3ccc(C)cc3)c(C)o2)c1 | 1.59
8 | COc1cc2c(C#CCCCO)c(-c3ccc(C#N)cc3)oc(=O)c2cc1OC | 1.85
9 | C=CCOc1cccc(CNn2cn[nH]c2=S)c1 | 10.1
10 | C=CCn1c(C)cc(C(=O)COC(=O)COc2ccccc2C#N)c1C | -4.56
11 | CCOC(=O)N1CCN(C(=O)CCS(=O)(=O)c2cc3c(cc2Cl)NC(=O)CO3)CC1 | -4.26
12 | COc1ccc(CN2CCN(C(=O)CC(C)C)CC2)cc1 | 25.4
13 | CCCS(=O)(=O)c1c(S(=O)(=O)CCC)c2ccccn2c1C(=O)OC | -7.5
14 | CCCn1c(SCC(=O)NCc2ccc(C)cc2)n[nH]c1=O | 17.3
15 | N/C(=N\[N+](=O)[O-])N1CCN(C(=O)c2ccccc2)CC1 | 24.8
16 | COc1cccc(Nc2nnc(SCC(=O)Nc3sccc3C(N)=O)s2)c1 | 8.27
17 | COc1ccc(-c2noc3c2-c2nc(-c4c(F)cccc4F)sc2CC3)cc1 | 16.1
18 | CCC(=NCc1ccco1)c1c(O)[nH]c(=O)[nH]c1=O | -20.8
19 | Nc1ccc2nc3n(c(=O)c2c1)CCC3 | 11.9
20 | Brc1ccccc1C1=Nn2c(nnc2-c2ccco2)SC1 | -29.2
21 | O=C(NCCNC(=O)C(F)(F)F)c1ccncc1 | -1.76
22 | CC(NC(=S)NC(=O)c1ccccc1Br)c1ccccc1 (stereo not shown) | 4.83
23 | COC(=O)c1c(NC(=O)CSc2nnc(Cn3nnc4ccccc43)n2C)sc(C)c1C | -62.7

Row | SMILES | hERG current change (%, negative = inhibition) at 10uM [%]
24 | O=C(COC(=O)c1ccccc1Nc1ccccc1)Nc1ccccc1 | 14.5
25 | CCCOc1ccc(C(=O)O/N=C(\CC)c2ccc(C)cc2)cc1 | -2.29
26 | C/C(CC(=O)Nc1ccc2c(c1)OCCO2)=N\NC(=O)C(=O)Nc1ccccc1C | 0.439
27 | COCCCNC(=O)CSc1nc2cc(S(=O)(=O)N3CCCCC3)ccc2o1 | -0.889
28 | CCN(CC)S(=O)(=O)c1ccc2c(c1)nc(CCC(=O)O)n2C | 6.87
29 | CCn1nc(C)c(NC(=O)c2cnn3c(C(F)F)cc(-c4ccccc4)nc23)c1C | -11.9
30 | COC(=O)C[C@H]1c2ccccc2S(=O)(=O)N1C(C)C | 11.2
31 | Cc1cccc(CS(=O)(=O)c2nnc([C@H](Cc3ccccc3)NC(=O)OC(C)(C)C)o2)c1 | 2.87
32 | CC(=O)c1ccccc1OCCOc1ncnc2sccc12 | -0.697
33 | Cc1cc(C)n(C(=O)COc2ccc(Cl)cc2Cl)n1 | 5.59
34 | CSCCC(NS(=O)(=O)c1ccc(C)cc1)C(=O)N1CCN(C(C)=O)CC1 (stereo not shown) | 3.56
35 | C=CCn1c(SCC(=O)Nc2nncs2)nnc1-c1ccco1 | 14.3
36 | O=C(Cc1ncc(C(F)(F)F)cc1Cl)Nc1ccc(F)cc1 | 8.49
37 | O=S(=O)(NCc1ccc(Cl)cc1)c1cnc[nH]1 | 5.18
38 | CSc1ccccc1C(=O)C1CCCN(C(=O)c2ccc(N3CCOCC3)cc2)C1 (stereo not shown) | -12.2
39 | COc1ccc(-n2c(-c3cccc(C)c3[N+](=O)[O-])n[nH]c2=S)cc1 | 11.7
40 | CCCCN(CC)C(=O)Cc1ccccc1OC | 16.2
41 | CN(C)C(=O)Cn1nc(-c2ccccc2)c2ccccc2c1=O | 2.62
42 | CC(C)(C)c1ccc(C(=O)n2cnc3ccccc32)cc1 | 18.7
43 | Cc1noc(C)c1C(=O)N1CCN(S(=O)(=O)c2cccs2)CC1 | 15.7
44 | Cc1ccc(OCC(=O)Nc2ccccc2C(=O)N2CCCC2)cc1 | -14.2
45 | Cc1ccc(-c2csc3nc(SCC(=O)Nc4ccc(Cl)c(C(=O)O)c4)[nH]c(=O)c23)cc1 | 2.38
46 | COC(=O)c1c(C(=O)OC)c(-c2ccc(F)cc2)n2c1CS(=O)C2 (stereo not shown) | 26.7

Row | SMILES | hERG current change (%, negative = inhibition) at 10uM [%]
47 | Fc1ccccc1-c1nc(-c2ccc(Cl)cc2)no1 | 5.58
48 | Cc1cc(NS(=O)(=O)c2ccc(NC(=O)CCc3ccccc3)cc2)no1 | 12.2
49 | Cc1cccc(NC(=O)CSc2nnc(NC(=O)c3ccc(S(=O)(=O)N4CCOCC4)cc3)s2)c1C | 0.662
50 | CN(c1ccccc1)S(=O)(=O)c1ccc(C(=O)Nc2ccncc2)cc1 | -9.83
51 | Cc1ccc(Nc2nnc(SCC(=O)NCCN3C(=O)CSC3=O)s2)cc1 | -12.3
52 | CCN(Cc1ccccc1)S(=O)(=O)CCNC(=O)c1ccccc1 | -26.5
53 | CCN1CCN(c2cc(C)c3cc(NC(=O)CCC(=O)Nc4ccc(OC)c(OC)c4)ccc3n2)CC1 | 4.85
54 | Cl.O=C(CN1CCCCCC1)N1c2ccccc2C=Cc2ccccc21 | -26.1
55 | O=C(/C=C/c1ccccc1)OCC(=O)N1CCN(c2ccccc2)CC1 | 1.92
56 | CCOC(=O)c1c(C)n(Cc2ccccc2)c2ccc(O)cc12 | 4.43
57 | O=C(COC(=O)Cc1ccccc1[N+](=O)[O-])Nc1nnc(-c2ccccc2)o1 | 12.4
58 | Cc1c(C)c2c(OCC(=O)NCc3ccncc3)cc3c(c2oc1=O)CCC(C)(C)O3 | 7.03
59 | CCOc1cc(Br)ccc1S(=O)(=O)NCc1ccccc1 | -30.3
60 | COC(=O)c1ccc(CSCc2ccc(C(=O)OC)o2)o1 | 13
61 | COC(=O)c1ccc(C)c(NC(=O)CN(c2ccc3c(c2)OCO3)S(C)(=O)=O)c1 | 6.5
62 | Cc1ccc(S(=O)(=O)CCCS(=O)(=O)c2ccc(C)cc2)cc1 | -21.3
63 | CN(C)C(=O)CSc1nc(-c2ccccc2)nc2c1CCCC2 | -5.09
64 | COc1cc(NS(=O)(=O)c2ccc3c(c2)oc(=O)n3C)cc(OC)c1OC | 14.8
65 | Cc1nnc(NC(=O)CCSc2ccc(Cl)cc2)s1 | -6.36
66 | Cc1cccc(N2CCN(CC(O)COCc3cccs3)CC2)c1C (stereo not shown) | -70.8
67 | CCCCN(CC)C(=O)c1oc2ccc(S(=O)(=O)N3CCCC3)cc2c1C | -33.2
68 | COc1ccc(CCNCC(=O)Nc2c(C)cc(C)cc2C)cc1OC.Cl | -0.0819
69 | COc1ccc2[nH]c(=S)[nH]c2c1 | 18

Row | SMILES | hERG current change (%, negative = inhibition) at 10uM [%]
70 | COc1ccc(OC)c(CNC(=O)Cc2c(C(=O)O)[nH]c3ccccc23)c1 | 15.3
71 | Cc1onc(-c2ccccc2Cl)c1C(=O)N1CCN=C1SCc1cccnc1 | 1.58
72 | CC1CCN(C(=O)CSc2nc3c(cnn3-c3ccc(Cl)cc3)c(=O)[nH]2)CC1 | -2.48
73 | COC(=O)c1ccc(CSc2nc3sc(C(=O)O)c(C)c3c(=O)[nH]2)cc1 | 9
74 | COc1cccc(-c2nn(-c3ccccc3)cc2CN(C)Cc2ccno2)c1 | 3.65
75 | Cc1ccc(-c2nc(-c3ccncc3)no2)cc1Cl | 15.9
76 | Cc1cc(C)nc(-n2nc(C)c(Br)c2Nc2ccc(Br)cc2)n1 | 9.02
77 | CC(C)(C)c1ccc(/C=N/NC(=S)NC2CCCCC2)cc1 | 9.8
78 | CC(C)(C)C(=O)CSc1nc2ccccc2o1 | 0.914
79 | O=C(NNc1c(Cl)cccc1Cl)c1ccno1 | 14.5
80 | COC(=O)c1cc(-c2ccc(OC)cc2)on1 | 11.4
81 | CC(C(=O)N(C)CC(=O)Nc1ccccc1C(F)(F)F)N1C(=O)c2ccccc2C1=O (stereo not shown) | -10.7
82 | O=C(O)CCC(=O)Nc1ccc(S(=O)(=O)Nc2nccs2)cc1 | 0.43
83 | Cc1ccc(CNC(=O)CN(C)S(=O)(=O)c2cccc3cccnc23)cc1 | 3.9
84 | CCC(=NCc1ccco1)c1c(O)n(-c2ccc(Cl)cc2)c(=O)[nH]c1=O | 8.14
85 | CCOc1cc(C(=O)N/N=C/C2CC=CCC2)cc(OCC)c1OCC (stereo not shown) | -29.2
86 | CCN1CCN(C(=O)c2ccc(CSc3ccc(C)cc3)cc2)CC1 | -63.6
87 | Cc1ccc(/C=N/NC(=O)CSc2nc3ccccc3s2)o1 | -7.71
88 | COc1ccc(C(=O)NC2CCCCCC2)cc1S(=O)(=O)N1CCOCC1 | 5.42
89 | Cc1[nH]c2ccc(C(=O)OCC(=O)NC3(C#N)CCCCC3)cc2c1C | -16.2
90 | O=C(NCCc1ccccc1)c1ccccc1NS(=O)(=O)N1CCCC1 | -13.7
91 | CSc1ccccc1NC(=O)C(C)N1C(=O)c2ccccc2S1(=O)=O (stereo not shown) | 7.26
